First the molecules themselves.
B1: chr20:7962013:7962014:-_ENSG00000125827_ENST00000246024|hu_mus|motif|central (ssRNA)
RNA: GGGAGUUCUACAGUCCGACGAUCGGGUUCAGAAAAACAAAGGAUGUGGCUGGAGAAACUCUUGAAGAAGUUAUCCUGUAACGGUAGGACCCAAAAAAGAUGUUGCUUGUACCUGUCCUAUGAAACUGCCACUGCCUUUUGAAUCAACAGAGGAUUGAGCAUCA
B2: chr21:34877999:34878000:-_ENSG00000159131_ENST00000381815|hu_hu|FALSE|FALSE (ssRNA)
RNA: GGGAGUUCUACAGUCCGACGAUCGUCAAUUGCACUGUCAAAUUCUACACGAUUUUUAUACAGUUUAUGAUUAAUUACUCUAGUGGGAAUACCAGCUCUUUCCGCUUUAUCUAACCCAGCUACUGCGGCUUUGUUGGAGAUAACCAACAGAGGAUUGAGCAUCA
B3: chrX:67713009:67713010:-_ENSMUSG00000073139_ENSMUST00000101506|mus_mus|motif|central (ssRNA)
RNA: GGGAGUUCUACAGUCCGACGAUCUACAGGAGCAAAAAAUAGUGGAUUUAACCACAUUUUUAAGAGACCAAACAAAAAAUGCGGCACUGCUUCCCCUUUCUUCUGAAACAGAACAGGCUCACUGGAGGCCUGUGCCAAGGGUAGCAACAGAGGAUUGAGCAUCA
B4: 159436158_159437584_99_3pUTR_ENSG00000113312_ENST00000231238|human|control|control (ssRNA)
RNA: GGGAGUUCUACAGUCCGACGAUCCAUUUAACAGAUCCUCUGGAACCCCACAGUUCUCUGACUUCUCCCCCAUGCUGCCCAGUGAGGGAGGUGACGCUAAAGAACCUCACAGCUUCUCCGGUCUCCACCUUCUUAGCCUCUGAGCAACAGAGGAUUGAGCAUCA
B5: chr4:95690885:95690886:+_ENSMUSG00000028572_ENSMUST00000156910|mus_mus|mus_mus_mus_hu_False|1_58 (ssRNA)
RNA: GGGAGUUCUACAGUCCGACGAUCUUUAGAAAAUGUUAAAUACCAUGCUAAAAUAUUUUCAAAGGCUUAUUUUAUUUUACUAAAAGACACAGGCAAGCAGACACUACAAGAAUAUAUGAAAAUGAAACUCAACAAUAAAAUGUACAACAGAGGAUUGAGCAUCA
B6: chr7:141438946:141438947:+_ENSG00000106028_ENST00000265304|hu_mus|hu_hu_hu_mus_True|28_108 (ssRNA)
RNA: GGGAGUUCUACAGUCCGACGAUCGACUACCUGUAAUUAACACAGGUCUUCGAAACAUGGCUUCUGUUUUUCUUACAACCUAAUCUUUAGGCUUUUCCUAAAGGAAAAACCCGAGCAAGAAAAAUGAUAAAUCAAGAAACUACACAACAGAGGAUUGAGCAUCA

This is one part of the list.

The target in the experiment is T1, UNK ZnF1-3 (human, UniProt Q9C0B0 31-174).
T1 sequence: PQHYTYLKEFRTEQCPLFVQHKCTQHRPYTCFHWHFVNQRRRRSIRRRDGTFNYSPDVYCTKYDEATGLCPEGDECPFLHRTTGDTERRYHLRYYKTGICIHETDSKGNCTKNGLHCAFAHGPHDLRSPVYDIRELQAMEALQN
The experiment is described as follows: nsRBNS (natural sequence RNA bind-n-seq); RBNS binding buffer (assumed for nsRBNS): 25 mM Tris pH 7.5, 150 mM KCl, 3 mM MgCl2, 0.01% Triton X-100, 500 ug/ml BSA, 20 U/ml SUPERase-In, 4 C; UNK is unkempt and MSI1 is Musashi-1; names of the RNAs are library labels; protein concentration not given here; high values mean tight binding.
B1 returned a binding signal of 1.73 enrichment R.

For B2, the binding signal is 0.69 enrichment R.

In the case of B3, the binding signal worked out at 1.03 enrichment R.

The molecule B4 had a binding signal of 0.601 enrichment R.

On to B5, for which the binding signal was determined as 2.05 enrichment R.

For B6, the binding signal came out at 0.365 enrichment R.

The values are drawn from PMC12136788.
